# Experimental data as given in the supplement of paper PMC9135407.
# “And” between values parts separate entries of the source, which are not always exact repeats. Equal entries are not always repeated. Structures can show the parent of a compound that is named as a salt. The campaign covered roughly 5,800 compounds. About 620 (11%) showed activity.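 How the source made its calls: active = score above a cut-off or among the top three wells of a plate; in these data no inactive exceeds 0.85.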 This is a selection; strong and weak results do not stand in their true shares.
# Tested on: primary human hepatic stellate cells (donor 1)
# Assay: scaled lipid accumulation score (0 = DMSO-like, 1 = nortriptyline-like); higher = stronger HSC inactivation (lipid re-accumulation), active = hit call of the paper
# Settings: 48 h
# [1] = library stock concentration: 3.33 mM
# [2] = library stock concentration: 10 mM
# [3] = library stock concentration: 7.6 mM
# [4] = library stock concentration: 1 mM
compound,measurement,setting,value
NC(=O)CN1CC(O)CC1=O (centres undefined) [Oxiracetam],scaled lipid accumulation score,[1],inactive: ≤ 0
same,scaled lipid accumulation score,[2],inactive: ≤ -0.001 and inactive: ≤ -0.055
CCCC(C)C1(CC)C(=O)NC(=S)NC1=O (centres undefined) [Thiopental sodium],scaled lipid accumulation score,[3],inactive: 0.052
COc1cc([C@@H]2c3cc4c(cc3[C@H](O)[C@H]3COC(=O)[C@@H]23)OCO4)cc(OC)c1OC [Picropodophyllotoxin],scaled lipid accumulation score,[2],inactive: 0.514
CCCCCCCCCCCCCCCCOC[C@H](COP(=O)([O-])OCC[N+](C)(C)C)OC(C)=O,scaled lipid accumulation score,[4],inactive: ≤ 0 and inactive: ≤ -0.021
O[C@H]1[C@H]2[C@H](O)CCCN2C[C@H]1O [swainsonine],scaled lipid accumulation score,library stock concentration: 28.9 mM,inactive: 0.01
CN1CCC(c2ccc(F)cc2)C(COc2ccc3c(c2)OCO3)C1 (centres undefined),scaled lipid accumulation score,library stock concentration: 9.7 mM,inactive: 0.664
CN(C)C(=O)C(CCN1CCC(O)(c2ccc(Cl)cc2)CC1)(c1ccccc1)c1ccccc1.Cl [Loperamide hydrochloride],scaled lipid accumulation score,[2],active: 1.46
O=C1C=C2C=C[C@@H]3C[C@@]2(O1)[C@H]1CCCCN31 [Securinine],scaled lipid accumulation score,,inactive: ≤ 0
same,scaled lipid accumulation score,[2],inactive: ≤ -0.027
CC(=O)C1=C(O)[C@@H]2[C@H]3c4c[nH]c5cccc(c45)C[C@H]3C(C)(C)N2C1=O [Cyclopiazonic acid],scaled lipid accumulation score,library stock concentration: 14.9 mM,inactive: 0.019
CC(=O)C1=C(O)[C@@H]2[C@H]3c4c[nH]c5cccc(c45)C[C@H]3C(C)(C)N2C1=O [Cyclopiazonic Acid],scaled lipid accumulation score,[2],inactive: 0.021
CN1CCC(c2c[nH]c3ccc(O)cc23)CC1,scaled lipid accumulation score,[1],inactive: ≤ 0
same,scaled lipid accumulation score,[2],inactive: 0.037 and inactive: 0.02 and inactive: ≤ -0.006
COc1ccc2[nH]c3c(c2c1)CCN=C3C [Methoxy-6-harmalan],scaled lipid accumulation score,,inactive: 0.039
CC(N)Cc1c[nH]c2ccc(OCc3cccs3)cc12 (centres undefined),scaled lipid accumulation score,[4],inactive: 0.315
C1=C2CCCN[C@H]2[C@@H]2C[C@H]1[C@H]1CCCCN1C2 [Aloperine],scaled lipid accumulation score,[1],inactive: 0.028
same,scaled lipid accumulation score,[2],inactive: 0.068
C[N+]1(C)[C@@H]2CC[C@H]1C[C@@H](OC(=O)C(CO)c1ccccc1)C2 (some centres undefined) [Atropine methyl nitrate],scaled lipid accumulation score,[2],inactive: ≤ 0
C[N+]1(C)[C@@H]2CC[C@H]1C[C@@H](OC(=O)C(CO)c1ccccc1)C2 (some centres undefined) [Methylatropine nitrate],scaled lipid accumulation score,,inactive: ≤ 0
C[N+]1(C)[C@@H]2CC[C@H]1C[C@@H](OC(=O)C(CO)c1ccccc1)C2 (some centres undefined) [Atropine methyl bromide],scaled lipid accumulation score,[2],inactive: ≤ 0
CN1C[C@H](C(=O)N[C@]2(C)O[C@@]3(O)[C@@H]4CCCN4C(=O)[C@H](Cc4ccccc4)N3C2=O)C[C@@H]2c3cccc4[nH]cc(c34)C[C@H]21 [Dihydroergotamine tartrate],scaled lipid accumulation score,,inactive: 0.119
CN1C[C@H](C(=O)N[C@]2(C)O[C@@]3(O)[C@@H]4CCCN4C(=O)[C@H](Cc4ccccc4)N3C2=O)C[C@@H]2c3cccc4[nH]cc(c34)C[C@H]21 [Dihydroergotamine mesylate],scaled lipid accumulation score,library stock concentration: 2.9 mM,inactive: ≤ 0
same,scaled lipid accumulation score,[2],inactive: 0.16 and inactive: 0.216
O=C1NCN(c2ccccc2)C12CCN(CC1COc3ccccc3O1)CC2 (centres undefined) [Spiroxatrine],scaled lipid accumulation score,library stock concentration: 5.3 mM,inactive: ≤ -0.006
same,scaled lipid accumulation score,[2],inactive: 0.259 and inactive: 0.158
"CC1C2Cc3ccc(O)cc3C1(C)CCN2CC1CC1 (single isomer, unassigned; (+)) [(+)-Cyclazocine]",scaled lipid accumulation score,[2],inactive: 0.53
c1ccc2nc(N3CCNCC3)ccc2c1 [Quipazine maleate],scaled lipid accumulation score,library stock concentration: 6.1 mM,inactive: 0.24
c1ccc2nc(N3CCNCC3)ccc2c1 [Quipazine dimaleate],scaled lipid accumulation score,[2],inactive: 0.262
c1ccc2nc(N3CCNCC3)ccc2c1 [Quipazine dimaleate salt],scaled lipid accumulation score,,inactive: 0.306
C[N+](C)(C)CCCCCCCCCC[N+](C)(C)C [Decamethonium Bromide],scaled lipid accumulation score,[1],inactive: ≤ 0
same,scaled lipid accumulation score,[2],inactive: 0.026
C[N+](C)(C)CCCCCCCCCC[N+](C)(C)C [Decamethonium dibromide],scaled lipid accumulation score,[2],inactive: ≤ -0.07
C[N+](C)(C)CCCCCCCCCC[N+](C)(C)C [Decamethonium bromide],scaled lipid accumulation score,,inactive: 0.052
same,scaled lipid accumulation score,library stock concentration: 4.8 mM,inactive: ≤ 0
CCCCC/C=C\C/C=C\C/C=C\C/C=C\CCCC(=O)NCCF [Arachidonoyl-2'-Fluoroethylamide],scaled lipid accumulation score,[4],inactive: ≤ 0
O=C(O)CNC(=O)c1c(O)c2ccccc2n(Cc2ccccc2)c1=O,scaled lipid accumulation score,library stock concentration: 80 uM,inactive: ≤ 0
same,scaled lipid accumulation score,library stock concentration: 400 uM,inactive: ≤ 0
same,scaled lipid accumulation score,library stock concentration: 2 mM,inactive: ≤ 0
same,scaled lipid accumulation score,[1],inactive: 0.072
same,scaled lipid accumulation score,[2],inactive: ≤ 0
"Cc1c(C(=O)c2cccc3ccccc23)c2cccc3c2n1[C@H](CN1CCOCC1)CO3 [WIN 55,212-2 mesylate]",scaled lipid accumulation score,[4],inactive: ≤ -0.021
N=C(N)c1ccc(CS(=O)(=O)F)cc1 [4-Amidinophenylmethanesulfonyl fluoride hydrochloride],scaled lipid accumulation score,[2],inactive: 0.067
CCCN(C/C=C/I)C1CCc2ccc(O)cc2C1 (centres undefined) [7-Hydroxy-PIPAT maleate],scaled lipid accumulation score,[2],inactive: 0.087
CC(=O)OC1CN2CCC1CC2 (centres undefined),scaled lipid accumulation score,[2],inactive: 0.001
NC1(c2ccccc2Cl)CCCCC1=O (centres undefined) [Norketamine hydrochloride],scaled lipid accumulation score,[2],inactive: ≤ 0
O=C1NC(=O)c2c1c1c3ccccc3[nH]c1c1[nH]c3ccccc3c21 [Arcyriaflavin A],scaled lipid accumulation score,[2],inactive: 0.434
Cl.Cl.Fc1ccc(C(OCCN2CCN(CCCc3ccccc3)CC2)c2ccc(F)cc2)cc1,scaled lipid accumulation score,,active: 0.864
COc1cccc(C2(O)CCCCC2CN(C)C)c1 (centres undefined) [Tramadol hydrochloride],scaled lipid accumulation score,library stock concentration: 6.7 mM,inactive: ≤ 0
COc1cccc(C2(O)CCCCC2CN(C)C)c1 (centres undefined) [Tramadol],scaled lipid accumulation score,[2],inactive: 0.009
COc1cccc(C2(O)CCCCC2CN(C)C)c1 (centres undefined) [Tramadol HCl],scaled lipid accumulation score,[3],inactive: ≤ 0
CC(CCc1ccccc1)NC(C)C(O)c1ccc(O)cc1 (centres undefined) [Nylidrin hydrochloride],scaled lipid accumulation score,library stock concentration: 6 mM,inactive: 0.278
same,scaled lipid accumulation score,[2],inactive: 0.645 and inactive: 0.289
CC(C)C[C@@H](N)C1(c2ccc(Cl)cc2)CCC1,scaled lipid accumulation score,[2],inactive: 0.666
